Screen size: about 310,000 compounds; about 2,200 (0.71%) showed an effect of 50% or more. The effect is printed as a negative number. This is one part of the list.
The compounds below were run against human ether-à-go-go-related gene (hERG) potassium channel (human, UniProt Q12809) (assay: primary screen, population patch clamp on CHO cells stably expressing hERG).
Chain of human ether-à-go-go-related gene (hERG) potassium channel (Q12809 whole entry, looked up): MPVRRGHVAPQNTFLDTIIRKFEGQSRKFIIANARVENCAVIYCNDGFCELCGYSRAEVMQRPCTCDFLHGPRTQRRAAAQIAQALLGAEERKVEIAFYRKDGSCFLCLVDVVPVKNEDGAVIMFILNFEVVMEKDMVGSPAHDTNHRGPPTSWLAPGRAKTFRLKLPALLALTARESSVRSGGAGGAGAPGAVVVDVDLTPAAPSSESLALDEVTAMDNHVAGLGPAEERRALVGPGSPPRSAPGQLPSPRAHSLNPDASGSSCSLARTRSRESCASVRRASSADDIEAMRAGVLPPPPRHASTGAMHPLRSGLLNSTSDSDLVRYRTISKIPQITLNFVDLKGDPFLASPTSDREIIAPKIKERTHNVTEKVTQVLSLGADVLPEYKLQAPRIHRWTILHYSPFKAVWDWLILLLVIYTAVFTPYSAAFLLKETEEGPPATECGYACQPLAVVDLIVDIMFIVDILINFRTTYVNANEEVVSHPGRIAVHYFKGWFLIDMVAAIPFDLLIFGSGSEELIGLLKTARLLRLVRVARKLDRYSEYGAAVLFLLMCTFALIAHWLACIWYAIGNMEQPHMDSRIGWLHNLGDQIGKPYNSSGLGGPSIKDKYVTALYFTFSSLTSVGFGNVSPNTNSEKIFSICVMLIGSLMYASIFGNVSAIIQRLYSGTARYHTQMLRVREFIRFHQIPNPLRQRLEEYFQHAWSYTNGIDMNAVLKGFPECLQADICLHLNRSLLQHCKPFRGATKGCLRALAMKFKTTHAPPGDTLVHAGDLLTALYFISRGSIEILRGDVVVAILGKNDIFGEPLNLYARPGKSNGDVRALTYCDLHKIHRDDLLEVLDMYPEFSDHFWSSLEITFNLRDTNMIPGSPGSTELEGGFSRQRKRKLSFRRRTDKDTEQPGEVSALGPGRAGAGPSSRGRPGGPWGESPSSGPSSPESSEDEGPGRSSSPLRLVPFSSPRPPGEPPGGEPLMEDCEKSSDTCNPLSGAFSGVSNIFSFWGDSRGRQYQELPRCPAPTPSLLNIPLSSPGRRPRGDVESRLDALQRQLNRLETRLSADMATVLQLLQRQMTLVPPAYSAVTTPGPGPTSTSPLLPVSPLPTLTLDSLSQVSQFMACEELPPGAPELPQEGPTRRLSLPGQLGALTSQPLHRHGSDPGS

SMILES	hERG current change (%, negative = inhibition) at 1uM [%]
CCn1c2ccccc2c2cc(N=C3SC(CC(=O)Nc4ccccc4)C(=O)N3C)ccc21 (stereo not shown)	16.2
COc1ccc(C(=O)O)cc1S(=O)(=O)NCc1ccccn1	9.89
COc1ccc(Cl)cc1NC(=O)COC(=O)CNC(=O)c1ccc([N+](=O)[O-])c(C)c1	12
C=CCn1c(SC(C)CC)nc(O)cc1=O (stereo not shown)	13
CCN(c1ccc(C(O)(C(=O)OC)C(F)(F)F)cc1)S(=O)(=O)c1ccc(C)cc1 (stereo not shown)	-9.81
O=C(NN=C1CCCC1)c1cccc(O)c1	6.66
Cc1nc(N(C)C)c2sc(=S)n(-c3ccccc3)c2n1	16.9
CC(C)C[C@H](NC(=O)OC(C)(C)C)c1n[nH]c(=S)n1N	17.9
CC(CN1CCCCC1)NC(=O)c1cc(-c2ccccn2)nc2ccc(Cl)cc12 (stereo not shown)	0.196
COc1ccc2nc(C)cc(N3CC(C)OC(C)C3)c2c1 (stereo not shown)	-12.8
Cc1c(C#N)c2ncnc(-c3ccccc3)c2n1-c1ccccc1	7.29
CCN(CC)S(=O)(=O)c1ccc(N2CCCC2)c(NC(=O)c2nn(C)c(=O)c3ccccc23)c1	1.74
Cc1onc(-c2c(F)cccc2Cl)c1C(=O)NC1=NCCS1	-3.9
O=c1c2cc(Br)ccc2nc(-c2ccccc2)n1O	22.3
O=C(O)CCCn1nc(-c2ccccc2)c2ccccc21	10.7
C/C(=N\NC(=S)Nc1ccccc1)C1Cc2ccccc2C(=O)O1 (stereo not shown)	5.98
Cn1cc(C(=O)c2ccc(Cl)cc2Cl)cc1C(=O)O	14.2
CC(=O)N(c1ccccc1Cl)S(=O)(=O)c1ccc(Cl)cc1	19.7
CSc1ccc(CNc2nnnn2C)cc1	-0.772
CC(C)CC(c1nnnn1CC1CCCO1)N1CCN(Cc2ccc3c(c2)OCO3)CC1.Cl (stereo not shown)	1.27
O=C(O)c1cc2ccccc2cc1Nc1ccccc1	6.84
Cc1ccccc1Cn1cc(NC(=O)c2cc(-c3ccco3)on2)cn1	3.58
CCOC(=O)C1C(c2ccc(O)c(O)c2)NC(=S)NC1(O)C(F)(F)F (stereo not shown)	-6.08
COc1cccc(-n2nnc3c(=O)n(CC(=O)OCc4ccccc4)cnc32)c1	17.5
C/C(=N\NC(=O)c1cc(-c2ccncc2)nc2ccccc12)c1ccc(N2CCOCC2)cc1	10.3
Cc1ccccc1-c1nc(CN2CCC(C(=O)NCc3cccnc3)CC2)c(C)o1	-0.546
CCCCNC(=O)CCCCCn1c(=O)[nH]c2cc(OC)c(OC)cc2c1=O	16.5
CCN1CCN(C(=S)c2ccc([N+](=O)[O-])cc2)CC1	-0.224

SMILES	hERG current change (%, negative = inhibition) at 1uM [%]
CSc1ncccc1C(=O)N(C)CC(=O)Nc1ccc(Cl)c(C(F)(F)F)c1	2.77
O=C(c1ccccc1F)N1CCN(C(=O)C(c2ccccc2)c2ccccc2)CC1	7.62
COc1cc(O)c(C(CCN2CCOCC2)c2cc(OC)c(OC)c(OC)c2)c(OC)c1 (stereo not shown)	9.63
O=C(CCN1CCN(Cc2ccccc2)CC1)NNC(=O)Nc1cccc([N+](=O)[O-])c1	10.4
O=C(CSc1nc(-c2ccco2)cc(C(F)(F)F)n1)N1CCN(Cc2ccccc2)CC1	0.0739
COc1cc(/C=C2/SC(=O)N(CC(=O)N3CCCC3)C2=O)ccc1Oc1ccc([N+](=O)[O-])cn1	7.76
Cl.O=C(NC1CCCCC1)NC1CCN(CC(=O)N2CCOCC2)CC1	16.9
Cc1cc(C)c(NC(=O)CNC(=O)Cc2ccc(S(=O)(=O)N3CCOCC3)s2)c(C)c1	11.8
CC1=CC(C)(C)N(C(=O)CSc2ncn[nH]2)c2ccccc21	8.74
Cc1ccc(CNC(=O)CN2C(=O)CSc3ccc(S(=O)(=O)N4CCCCC4)cc32)cc1	8.32
CCCc1cc(=O)[nH]c(SCC(=O)N2CCN(S(=O)(=O)c3ccc(Cl)cc3)CC2)n1	7.69
CC1(OC(=O)CCc2ccccc2)C(=O)C=C2C=C(c3ccc(C#N)cc3)N(c3ccccc3)C=C2C1=O (stereo not shown)	11.7
C=CCSc1nc(=O)n2ccccc2n1	15.4
COc1cccc(-c2cc(C(=O)Nc3nc4ccccc4s3)c3ccccc3n2)c1	-7.44
CC(C)(C)OC(=O)[C@H](Cc1ccccc1)NC(=O)c1nc[nH]c1C(=O)NCC(=O)OCc1ccccc1	8.94
CCCN1C(=O)CC(C(=O)OC)=C1C	12.5
COc1cc(/C=C/C(=O)OCC(=O)Nc2ccc3c(c2)OCCO3)ccc1O	7.33
COC(=O)[C@@]1(Cc2ccc(F)cc2)[C@@H]2[C@@H](CC(=O)[C@H]2CC(=O)C(=O)N(C)C)CN1C(=O)c1ccccc1	-0.408
CCOc1ccc(NC(=O)CN(C)C(=O)c2ccccc2OCc2c(C)noc2C)cc1OCC	14.6
CC(C)CCn1c(N2CCc3ccccc3C2)nc2c1c(=O)[nH]c(=O)n2C	8.85
CCOC(=O)c1c(-c2ccc(OC)cc2)csc1NC(=O)CCN1C(=O)c2ccccc2C1=O	8.98
CCc1nc(SCC(=O)Nc2ccccc2Cl)n[nH]1	12.7
CS(=O)(=O)N1CCc2cc(C(=O)N3CCOCC3)ccc21	11.8
Cc1cccc(OCCOCCN2CCNCC2)c1C.O=C(O)C(=O)O	-0.5
CCOC(=O)c1c(C)oc2ccc(OC(=O)c3cccs3)cc12	-11.6
COc1cc(OC)cc(C(=O)Nc2cccnc2)c1	4.39
OC(CCN1CCOCC1)c1ccccc1 (stereo not shown)	4.74
